Here are results for 93 compounds from PubChem BioAssay AID1508624 (National Center for Advancing Translational Sciences (NCATS), 2021).

The whole screen tested about 48,000 compounds, of which about 120 (0.25%) were called active. Inconclusive results (about 4%) are left out. Calls come from the whole dose curve; as a rule, active = well fitted activation curve with a large enough effect; inconclusive = small, poorly fitted or top-dose-only effect, or another doubt; inactive = no such curve, though single readings can be large or run the other way. Some of the results follow.

This assay is described as follows: Primary qHTS for Identification of Small Molecule Activators of Huntingtin-Antisense Promoter Activity. Note: nearly all actives have a fitted effect of over 55% in size. The settings on record: HEK293 HTT-AS promoter firefly luciferase reporter, 24 h; series mostly up to 57.5 µM; activity change, positive = activation: at the top concentration. The essentials: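 Firefly luciferase readout (Dual-Glo, 10 min RT) after 24 h, 37 °C compound exposure (final up to 57.5 uM) of HEK293 reporter cells cultured 24 h beforehand; PTC124 at 50 uM final as control inhibitor; activity scaled vehicle 0%, zero RLU -100%.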
In general terms: qHTS replaces the single test concentration by a dilution series.
Take `Cc1ccc(S(=O)(=O)c2nc(-c3cccs3)oc2SC(C)c2ccccc2)cc1` (stereo not drawn): the “activity change, positive = activation” value is inactive: -4.3%.
The result for `CCOc1ccc(CC(=O)NCCS(=O)(=O)N2CCN(c3ccccc3OC)CC2)cc1` reads inactive: -23.5%.
In the case of `CCS(=O)(=O)N1CCc2cc(C(=O)N3CCN(c4ccccc4)CC3)ccc21` it was inactive: -0.5%; in that of `CCCCC(=O)Nc1cc(-c2nc3ccccc3o2)ccc1OC`, inactive: 3.63%; in that of `CCOC(=O)c1noc2ncn(CC(=O)Nc3ccc(OC)c(Cl)c3)c(=O)c12`, inactive: -7.67%.
In the case of `CCOc1ccc(-c2cc(C(=O)NCc3ccc(OCC)c(OC)c3)[nH]n2)cc1` it was inactive: -6.91%.
`COc1ccc(-c2ccc(NS(=O)(=O)c3ccccc3)cc2)nn1`: the “activity change, positive = activation” value is inactive: -11.2%.
In the case of `O=c1c2sc3ccccc3c2n(Cc2ccc(F)cc2)c(=O)n1Cc1ccccc1` it was inactive: -14.1%; in that of `CCc1cccc(CC)c1NC(=O)CCS(=O)(=O)c1ccc(Br)cc1`, inactive: -23.5%.
The result for `Cc1cc(C)n2nc(SCC(=O)Nc3ccc(O)cc3)nc2n1` reads inactive: 2.75%; that for `COc1ccc2[nH]cc(CCNC(=O)Nc3c(C)cccc3C)c2c1`, inactive: -3.8%; that for `Cc1ccc(NC(=O)CSc2ncccc2C(=O)Oc2ccccc2Cl)cc1Cl`, inactive: 3.09%.
The result for `COc1cc(C)ccc1OCCSc1nc2ccc(NC(=O)c3ccc4c(c3)OCO4)cc2s1` reads inactive: -37.9%; that for `CCOC(=O)c1cc(-c2ccccc2)n(CCC(=O)Nc2ccc(OC)c(Cl)c2)c1C`, inactive: -32.1%; that for `Cc1cc(NC(=O)CN(C)S(=O)(=O)c2ccc3c(c2)CCCC(=O)N3)ccc1Br`, inactive: -49.7%.
`Cc1ccccc1-c1nc2c(c(SCc3cccc(Cl)c3)n1)Cc1c(CO)cnc(C)c1O2`: the “activity change, positive = activation” value is inactive: -10.1%.
As to `CCc1ccc(NC(=O)Cn2c(=O)n(CCCC(=O)NCc3ccccc3OC)c(=O)c3ccccc32)cc1`, the “activity change, positive = activation” value was inactive: -16.3%.
`COc1cc(-c2nc(Cn3nnc(C(=O)Nc4ccccc4C)c3C)c(C)o2)cc(OC)c1OC`: the “activity change, positive = activation” value was inactive: -0.429%.
In the case of `CCOC(=O)CSc1nc2c([nH]c3ccccc32)c(=O)n1-c1ccc(OCC)cc1` it was inactive: -13.2%.
Turning to `Cc1ccccc1C(=O)Nc1nc2c(s1)CC(C(C)(C)C)CC2` (stereo not drawn), the activity change, positive = activation is inactive: 6.8% [at 11.5 µM, percent change from vehicle, -100% = no light].
`COc1ccc(-c2c(C)c3ccc(O)c(CN4CCN(C)CC4)c3oc2=O)cc1OC`: the “activity change, positive = activation” value was inactive: -18.7%.
The result for `COc1ccc2c(c1)c1c(c(=O)n(-c3cccc(Cl)c3)c(=O)n1C)n2C` reads inactive: -8.92%; that for `Cc1cccc2sc(N(Cc3cccnc3)C(=O)C3CCCCC3)nc12`, inactive: -10.6%; that for `COc1ccc(S(=O)(=O)c2cn(CC(=O)Nc3ccccc3)c3ccc(Cl)cc3c2=O)cc1`, inactive: -12%.
In the case of `COc1ccc(CSc2nc3ccncc3n2Cc2nc(-c3ccc(OC)c(OC)c3)oc2C)cc1` it was inactive: 13.3%; in that of `Cc1cccc(NC(=O)CSc2nc(=O)n(CCN3CCOCC3)c3c2CCC3)c1C`, inactive: -9.23%; in that of `CCCC(=O)NCc1nc2cccnc2n1Cc1ccc(F)cc1`, inactive: -5.25%.
The result for `Cc1cccc(Cn2nnc3c(=O)[nH]c(C4CCN(C(=O)c5ccccc5F)CC4)nc32)c1` reads inactive: -18.7%.
As for `C=CCN1C[C@H](C(=O)N(CCCN(C)C)C(=O)NCC)C[C@@H]2c3cccc4[nH]cc(c34)C[C@H]21`, the “activity change, positive = activation” value is inactive: -10.7%.
Consider `Cc1ccc(NC(=O)Cn2c(=O)n(Cc3ccc4c(c3)OCO4)c(=O)c3ccc(C(=O)NC4CCCCC4)cc32)cc1`, for which the “activity change, positive = activation” value is inactive: -11.4%.
The result for `CCOC(=O)c1ccc(NC(=O)Cc2coc3cc(C)cc(C)c23)cc1` reads inactive: -8.32%.
The result for `CCCCc1nn2c(=O)cc(COC(=O)c3ccccc3NC(=O)C3CCCCC3)nc2s1` reads inactive: -0.805%; that for `COc1ccc(S(=O)(=O)NCc2cccn2Cc2cccc(C)c2)cc1OC`, inactive: -14%.
In the case of `CCN(C(=O)CSc1nnc(C)n2c1cc1occc12)c1ccccc1` it was inactive: -23.4%; in that of `CCOc1ccc(NC(=O)c2cc3c(=O)n4cccc(C)c4nc3s2)cc1`, inactive: 2.49%.
Turning to `Cc1cc([N+](=O)[O-])ccc1NC(=O)CSc1nccn1C`, the “activity change, positive = activation” value is inactive: -2.84%.
The result for `COc1ccc(CNC(=O)c2cnc(N3CCCC3)nc2C)cc1` reads inactive: -9.69%.
The result for `O=C(CSc1cn(CC(=O)N2CCOCC2)c2ccccc12)Nc1ccccc1C(F)(F)F` reads inactive: -5.76%.
In the case of `COc1ccc(C)cc1NC(=O)CN1C(=O)CCc2cc(S(=O)(=O)N3CCOCC3)ccc21` it was inactive: -11.1%.
With `Cc1ccc(C(c2sc3nc(-c4ccco4)nn3c2O)N2CCCCC2)cc1` (stereo not drawn), the “activity change, positive = activation” value is inactive: -1.71%.
In the case of `CC(=O)c1ccc(NC(=O)CSc2nc(-c3ccccc3F)nc3c2c(=O)n(C)c(=O)n3C)cc1` it was inactive: -5.72%; in that of `C=Cc1ccc(Cn2c(=O)n(-c3ccccc3C)c(=O)c3c4c(sc32)CN(C(C)=O)CC4)cc1`, inactive: -34.9%; in that of `CCc1nn(CC(=O)Nc2c(C)cc(C)cc2C)c(=O)c2cc3sccc3n12`, inactive: -14%.
For the compound `Cc1ccc(N(C)S(=O)(=O)c2ccc3[nH]cc(C(=O)O)c(=O)c3c2)cc1C`, the “activity change, positive = activation” value was inactive: -4.42%.
As for `CCN(Cc1ccccc1)C(=O)Nc1ccc2c(c1)N(C)C(=O)c1ccccc1S2`, the “activity change, positive = activation” value was inactive: -19.3%.
As for `Cc1ccc(C(=O)Nc2ccc3c(c2)N(C)C(=O)c2ccccc2S3)cc1F`, the “activity change, positive = activation” value was inactive: -51.7%.
In the case of `CN1CCC(=C2c3ccccc3C=Cc3ccccc32)CC1` it was “inactive”; in that of `CC1Cc2cc(S(=O)(=O)NCc3ccc(F)cc3)ccc2N1C(=O)C1CCC1` (stereo not drawn), inactive: -37.5%.
In the case of `CCOC(=O)c1c(-c2ccc(C)cc2)csc1NC(=O)c1cc(=O)c2cc(C)c(C)cc2o1` it was inactive: 4.09%; in that of `O=C(NCc1cccs1)c1ccc(CSc2nc3ccncc3n2Cc2cccc(F)c2)cc1`, inactive: -29.8%.
On to `Cc1ccc(NC(=O)C2CCN(c3nc4ccccc4[nH]3)CC2)cc1Cl`, for which the “activity change, positive = activation” value was inactive: -20%.
In the case of `COc1ccccc1CNC(=O)Nc1ccc2c(c1)N(C)C(=O)c1ccccc1S2` it was inactive: -35.3%.
The result for `O=C(CSc1nc2c([nH]c3ccccc32)c(=O)n1-c1ccc(F)cc1)N1CCCCCC1` reads inactive: -21.5%; that for `COc1ccc(Br)cc1CNC(=O)CCC(=O)N1CCSc2ccccc21`, inactive: -16.4%.
The result for `Clc1cccc(-c2noc3ncnc(NC4CCCCC4)c23)c1` reads inactive: -31.4%; that for `O=C(Cn1cc(SCc2cccc(C(F)(F)F)c2)c2ccccc21)N1CCCCCC1`, inactive: -9.61%; that for `COc1cccc2cc(-c3nc(-c4cccs4)no3)c(=O)oc12`, inactive: 8.12%.
In the case of `COc1cc(NC(=O)CCc2c(C)nc3c(c(C)nn3-c3ccccc3)c2C)cc(OC)c1OC`, the “activity change, positive = activation” value was inactive: -11.5%.
Take `CN1C(=O)C2CCCCN2c2ccc(C(=O)NCc3ccccc3Br)cc21` (stereo not drawn): the “activity change, positive = activation” value was inactive: -19.2%.
In the case of `CCOC(=O)c1c(C)c(C(=O)NCCc2ccc(OC)cc2)c(C)n1CC`, the “activity change, positive = activation” value was inactive: -13.3%.
In the case of `CC(=O)c1c(C)n(-c2cccc(C)c2)c2ccc(OC(=O)COc3ccccc3)cc12` it was inactive: -19.3%.
In the case of `COc1cccc(-c2cc(C(=O)NCCc3ccc(C)cc3)[nH]n2)c1` it was inactive: 2.67%; in that of `Cc1ccc(NS(=O)(=O)c2c(C(=O)N3CCCCCC3)c(C)n(C)c2C)cc1F`, inactive: -6.32%; in that of `O=C(Nc1ccc(Br)cc1)c1ccc(Br)c(S(=O)(=O)NCc2ccccc2)c1`, inactive: -39.1%.
Consider `CCOc1ccc(CNC(=O)Cn2nc(C)c3sc4ccccc4c3c2=O)cc1`, for which the “activity change, positive = activation” value is inactive: -7.56%.
The result for `O=c1n(Cc2ccc(F)cc2Cl)c2ccccc2c2nc(-c3ccccc3)nn12` reads inactive: -4.38%; that for `COc1ccc2c(c1)CCc1c(C(=O)Nc3c(C)nn(Cc4ccccc4Cl)c3C)noc1-2`, inactive: -37.1%; that for `CCCCN(CC)CCCNC(=O)c1cn(CC(C)C)c(=O)c2c1c1ccccc1n2C`, inactive: -12.4%.
In the case of `Cn1c(=O)c2c(nc(NCCc3ccccc3)n2Cc2cccc(Br)c2)n(C)c1=O` it was inactive: -27.1%.
The result for `Cc1ccc(CCNC(=O)c2nnc(Cc3cccc(F)c3)o2)cc1` reads inactive: -11.2%; that for `COc1ccc(-c2cn3nc(N4CCCC(C(=O)Nc5ccc(Cl)cc5C)C4)sc3n2)cc1` (stereo not drawn), inactive: -2.86%.
As for `CC1Cc2ccccc2N1S(=O)(=O)c1nnc(NC(=O)c2ccccc2Br)s1` (stereo not drawn), the “activity change, positive = activation” value is inactive: -32.3%.
As for `CC(C)Oc1ccc(C(=O)Nc2ccc3oc(-c4ccncc4)nc3c2)cc1`, the “activity change, positive = activation” value is inactive: -27.1%.
Take `COc1ccc(S(=O)(=O)NCC(c2cccs2)S(=O)(=O)c2ccc(C)cc2)cc1F` (stereo not drawn): the “activity change, positive = activation” value is inactive: -15.1%.
In the case of `Cc1[nH]c2ccc(F)cc2c1CCNC(=O)c1cc2cc(Cl)ccc2oc1=O` it was inactive: -10.7%.
In the case of `COc1cc(NC(=O)C(NC(=O)C2CCC(C)CC2)C(C)C)cc(OC)c1OC` (stereo not drawn) it was inactive: 14.7%.
The result for `COc1ccc(Cl)cc1NS(=O)(=O)c1c(C)nc2scc(C)n2c1=O` reads inactive: -3.46%; that for `COCCn1c(CNC(=O)c2cc([N+](=O)[O-])ccc2Cl)nc2cccnc21`, inactive: -10%.
As to `Cc1ccc(CNC(=O)c2c[nH]c3ccc(S(=O)(=O)Nc4ccc(C(C)C)cc4)cc3c2=O)cc1`, the “activity change, positive = activation” value was inactive: -22%.
The result for `O=C(NC1(C(F)(F)F)NC(=O)N(CCc2ccccc2)C1=O)c1ccccc1F` (stereo not drawn) reads inactive: 3.35%.
The result for `COc1cccc(CSc2nc3cc(OC)c(OC)cc3c3nc(CCn4nc(C)cc4C)nn23)c1` reads inactive: 0.717%.
For the compound `COC(=O)c1cc2sc(C)cc2n1Cc1ccc(F)cc1Cl`, the “activity change, positive = activation” value was inactive: -2.16%.
In the case of `CCOc1ccc2nc(N(Cc3cccnc3)C(=O)c3ccc4c(c3)OCCO4)sc2c1`, the “activity change, positive = activation” value was inactive: 8.63%.
In the case of `COc1ccccc1CNC(=O)Cn1c(=O)ccc2cc(S(=O)(=O)N3CCC(C)CC3)ccc21` it was inactive: -7.15%; in that of `O=S(=O)(c1ccc(Cl)cc1)c1nc(-c2ccccc2Br)oc1N1CCOCC1`, inactive: -32.7%.
For `CCOC(=O)c1ccccc1NC(=O)Cc1c(C(=O)O)c(C)cn1C`, the “activity change, positive = activation” value was inactive: -20.6%.
On to `CCOC(=O)c1ccc(N2C(=O)c3n[nH]c(C)c3C2c2ccc(O)c(OC)c2)cc1` (stereo not drawn), for which the “activity change, positive = activation” value was inactive: -18.7%.
The result for `COc1ccc(N2CCN(C(=O)Cn3cnc4sc(C)c(S(=O)(=O)N5CCC(C)CC5)c4c3=O)CC2)cc1` reads inactive: 9.93%; that for `Cc1cccc(CS(=O)(=O)CC2Nc3ccc(C(=O)NCc4ccccc4)cc3NC2=O)c1` (stereo not drawn), inactive: -24.9%.
In the case of `Cc1ccc(-n2ncc(C(=O)N3CCN(c4ccccn4)CC3)c2C2CCN(C(=O)OC(C)(C)C)CC2)cc1C` it was inactive: -1.82%.
The result for `Cc1cc(=O)oc2c3c(ccc12)OCN(Cc1ccccc1Cl)C3` reads inactive: 2.78%; that for `COc1ccc(NC(=O)Cn2cnc3c(nc4n3CCCCC4)c2=O)c(OC)c1`, inactive: -5.79% [at 11.5 µM, percent change from vehicle, -100% = no light]; that for `COCCCn1c(=N)c(C(=O)NC2CCCCC2)cc2c(=O)n3ccccc3nc21`, inactive: -8.03%.
